The test deals with Genome polyprotein (dengue virus type 2) (UniProt P29990).
The mark [1] stands for this setting: Thailand/16681/1984, Concentration 25.0 uM, Number of replicates 1.0.

Screen size: about 2,000 compounds; about 110 (5.5%) showed an effect of 50% or more. The list shows a part of the results.

As for `NCc1cccc(NC(=O)C2(NC(=O)OCc3ccccc3)CC2)c1`, the inhibition (usually the drop in the measured response relative to a control, in per cent) (Thailand/16681/1984, Concentration 49.5 uM, Number of replicates 2.0, Standard deviation 1.7759278472435331 %) was -2.62%; the inhibition (Thailand/16681/1984, Concentration 99.01 uM, Number of replicates 2.0, Standard deviation 1.0159093223805302 %) was -3.21%; the inhibition (Thailand/16681/1984, Concentration 198.0 uM, Number of replicates 2.0, Standard deviation 1.1412237884146983 %) is -2.7%.

In the case of `Cc1cc(CO)c2cccc(Cc3ccccc3NC(=O)C3(C(N)=O)CC3)c2n1`, the inhibition is, setting by setting: (Thailand/16681/1984, Concentration 49.95 uM, Number of replicates 2.0, Standard deviation 1.6381227411846766 %) -4.94%; (Thailand/16681/1984, Concentration 99.9 uM, Number of replicates 2.0, Standard deviation 0.7463635544405988 %) -0.551%. As for `COc1cc(Cc2cnn(-c3ccc(F)cc3)c2)nc(N2CCNCC2)n1`, the inhibition is, setting by setting: (Thailand/16681/1984, Concentration 49.5 uM, Number of replicates 2.0, Standard deviation 0.031215136118926425 %) 0.871%; (Thailand/16681/1984, Concentration 99.01 uM, Number of replicates 2.0, Standard deviation 1.7579341775024742 %) 1.83%; (Thailand/16681/1984, Concentration 198.0 uM, Number of replicates 2.0, Standard deviation 1.6450393762001025 %) 5.51%. As for `Cn1cc(CNC(=O)c2cccc3ncccc23)cn1`, the inhibition (Thailand/16681/1984, Concentration 49.5 uM, Number of replicates 2.0, Standard deviation 0.43206015672712206 %) is -3.35%; the inhibition (Thailand/16681/1984, Concentration 99.01 uM, Number of replicates 2.0, Standard deviation 1.3916787699025177 %) is -0.916%; the inhibition (Thailand/16681/1984, Concentration 198.0 uM, Number of replicates 2.0, Standard deviation 0.9897515130549714 %) was 0.136%. As to `COc1cc(NC(=O)C2CCN(c3ccc(C=O)cc3)CC2)c(Cl)cc1Cl`, under setting [1], the inhibition worked out at 9.48%. Same read-out and setting: the figure for `O=Cc1ccc(N2CCC(C(=O)NCc3ccccc3)CC2)cc1` is 14.5%; for `CS(=O)(=O)c1ccc(N2CCN(C(=O)C3CCN(c4ccc(C=O)cc4)CC3)CC2)c([N+](=O)[O-])c1` it is 18.6%. For `c1ccc2c([C@H]3CCN(Cc4ncco4)C3)c[nH]c2c1`, the inhibition (Thailand/16681/1984, Concentration 49.5 uM, Number of replicates 2.0, Standard deviation 0.1074412519861532 %) was 0.43%; the inhibition (Thailand/16681/1984, Concentration 99.01 uM, Number of replicates 2.0, Standard deviation 0.6341422413381848 %) amounted to 1.18%; the inhibition (Thailand/16681/1984, Concentration 198.0 uM, Number of replicates 2.0, Standard deviation 0.7339431969199801 %) is 1.57%. On to `Cc1ccc2nc(NC(=O)C3CCN(c4ccc(C=O)cc4)CC3)sc2c1`, for which the inhibition under setting [1] turned out to be 12.1%. The same measure, in the same setting: then `COc1ccc(CN(C(=O)C2CCN(c3ccc(C=O)cc3)CC2)C2CC2)cc1`, with 12.8%; and `O=Cc1ccc(N2CCC(C(=O)NCc3ccccc3-c3ccccc3)CC2)cc1`, with 0.423%. `c1ccc2cc(CN3CCC[C@H](c4cc5ccccc5[nH]4)C3)ncc2c1`: the inhibition by setting is: (Thailand/16681/1984, Concentration 49.5 uM, Number of replicates 2.0, Standard deviation 0.45841609838753045 %) 3.61%; (Thailand/16681/1984, Concentration 99.01 uM, Number of replicates 2.0, Standard deviation 0.07306004460708841 %) 7.05%; (Thailand/16681/1984, Concentration 198.0 uM, Number of replicates 2.0, Standard deviation 0.7024267951278979 %) 12.2%. On to `O=Cc1ccc(N2CCC(C(=O)Nc3ccc(F)cc3I)CC2)cc1`, for which, under setting [1], the inhibition stood at 13.1%. In the case of `Cc1cc(CO)c2cccc(Cc3cccc(NC(=O)[C@@H]4C[C@@H](O)CN4)c3)c2n1`, the inhibition (Thailand/16681/1984, Concentration 49.95 uM, Number of replicates 2.0, Standard deviation 2.441952325018875 %) came to 6.86% and the inhibition (Thailand/16681/1984, Concentration 99.9 uM, Number of replicates 2.0, Standard deviation 0.9249931753459224 %) turned out to be 21.6%.

`Nc1nccc2cc(Br)ccc12`: the inhibition (Thailand/16681/1984, Concentration 49.95 uM, Number of replicates 2.0, Standard deviation 5.1898726049351325 %) is -2.94% and the inhibition (Thailand/16681/1984, Concentration 99.9 uM, Number of replicates 2.0, Standard deviation 6.552121336877266 %) is -2.95%. As for `O=Cc1ccc(N2CCC(C(=O)NCc3c(F)ccc(F)c3F)CC2)cc1`, the inhibition under setting [1] was found to be 12.3%.

For `CCCCCC(=O)N[C@@H](Cc1ccccc1)C(=O)NCc1cccc(CN)c1`, the inhibition (Thailand/16681/1984, Concentration 49.5 uM, Number of replicates 2.0, Standard deviation 0.5911657110409295 %) was -0.287%; the inhibition (Thailand/16681/1984, Concentration 99.01 uM, Number of replicates 2.0, Standard deviation 0.7592516208074989 %) was -0.251%; the inhibition (Thailand/16681/1984, Concentration 198.0 uM, Number of replicates 2.0, Standard deviation 1.593950905190228 %) was -0.639%. As to `O=C(O)c1cccc(NC(=O)c2cccc(Br)c2)c1`, the inhibition (Thailand/16681/1984, Concentration 49.5 uM, Number of replicates 2.0, Standard deviation 1.0600871432274672 %) was found to be 0.013%; the inhibition (Thailand/16681/1984, Concentration 99.01 uM, Number of replicates 2.0, Standard deviation 0.9483482403189308 %) was found to be 0.568%; the inhibition (Thailand/16681/1984, Concentration 198.0 uM, Number of replicates 2.0, Standard deviation 1.6307196050968895 %) was 1.74%.

As for `O=C(NC[C@H]1CCOC1)c1cc(Cl)ccc1NS(=O)(=O)c1ccc(Oc2ccccc2Cl)cc1`, the inhibition came to 78.1% (Thailand/16681/1984, Concentration 49.5 uM, Number of replicates 2.0, Standard deviation 2.9570930238802475 %); 83.4% (Thailand/16681/1984, Concentration 99.01 uM, Number of replicates 2.0, Standard deviation 0.09728436725720986 %); 79% (Thailand/16681/1984, Concentration 198.0 uM, Number of replicates 2.0, Standard deviation 0.16101849440059574 %). `Cc1cnccc1NC(=O)c1cc(C(C)C)n(C)n1`: the inhibition was -6.25% (Thailand/16681/1984, Concentration 49.5 uM, Number of replicates 2.0, Standard deviation 1.5485783897754013 %); -4.79% (Thailand/16681/1984, Concentration 99.01 uM, Number of replicates 2.0, Standard deviation 0.5615723645792781 %); -1.98% (Thailand/16681/1984, Concentration 198.0 uM, Number of replicates 2.0, Standard deviation 0.913779922005902 %). As to `COc1nc(Br)cnc1NC(=O)C1CCN(c2ccc(C=O)cc2)CC1`, under setting [1], the inhibition turned out to be 12.3%. Still for that read-out and setting: then `O=Cc1ccc(N2CCC(C(=O)N(C3CCCCC3)C3CCCCC3)CC2)cc1`, with 10.2%.

(Values after ChEMBL document CHEMBL5606460, “ASAP - DENV-2 NS2B-NS3 protease fluorescence single point” (2024).)
